Assay results published in the antibiotic and cytotoxicity screens of Wong et al. (2023).
This is one part of the list.

Columns and labels:
HSkMC = human skeletal muscle cells; assay: cytotoxicity call (relative viability < 0.9); conditions: 10 µM
HepG2 = assay: cytotoxicity call (relative viability < 0.9); conditions: 10 µM
S. aureus RN4220 = assay: growth inhibition call (relative growth <= 0.2); conditions: 50 µM

Row | Compound | cytotoxicity call (HSkMC) | cytotoxicity call (HepG2) | growth inhibition call (S. aureus RN4220)
1 | NCC[C@@H]1CC[C@@H](NC(=O)C2CCCC2)[C@@H](CO)O1 | inactive | inactive | inactive
2 | COc1ccc(NC(=O)Nc2ccc3c(c2)C(=O)N([C@@H](C)CO)C[C@@H](C)[C@@H](CN(C)S(=O)(=O)c2ccccc2)OCCCC[C@@H](C)O3)cc1 | inactive | inactive | inactive
3 | C[C@H](CO)N1C[C@H](C)[C@@H](CN(C)Cc2ccccc2)Oc2c(NC(=O)c3cnccn3)cccc2C1=O | inactive | inactive | inactive
4 | COc1ccc(S(=O)(=O)Nc2cccc3c2O[C@@H](CN(C)S(=O)(=O)c2ccc(OC)cc2)[C@H](C)CN([C@H](C)CO)C3=O)cc1 | inactive | inactive | inactive
5 | COCC#Cc1cnc2c(c1)C(=O)N([C@@H](C)CO)C[C@H](C)[C@H](CN(C)C(=O)Nc1ccc(OC)cc1)O2 | inactive | inactive | inactive
6 | C[C@@H]1CN([C@H](C)CO)S(=O)(=O)c2ccc(C#Cc3ccccc3F)cc2O[C@@H]1CN(C)CC1CC1 | inactive | inactive | inactive
7 | Cc1ccc(C(=O)N(CCCN)[C@@H](c2oc3cc(Cl)ccc3c(=O)c2Cc2ccccc2)C(C)C)cc1 | active | active | inactive
8 | CO[C@H](CN(C)C(=O)c1ccc2c(c1)OCO2)[C@H](C)CN([C@H](C)CO)S(=O)(=O)c1ccc(C)cc1 | inactive | inactive | inactive
9 | COCC(=O)Nc1ccc2c(c1)C(=O)N(C)[C@H]1CC[C@@H](CC(=O)NCc3ccc(OC)cc3)O[C@H]1CO2 | inactive | inactive | inactive
10 | Cc1noc(C)c1S(=O)(=O)N(C)C[C@@H]1Oc2ccc(NS(=O)(=O)c3ccc(F)cc3)cc2CC(=O)N([C@@H](C)CO)C[C@@H]1C | inactive | inactive | inactive
